# B1: U1-49: human IgG1 anti-HER-3 antibody, SEQ ID NO: 42/44 (antibody, V domains shown)
# VH: [in this place about 100 residues]GGRYSSSWSYYYYGMDVWGQGTTVTVS
# VL: DILMTQTPLSLSVTPGQPASISCKSSQSLLLSDGGTYLYWYLQKPGQPPQLLIYEVSNRFSGVPDRFSGSGSGTDFTLKISRVEAEDVGVYYCMQSMQLPITFGQGTRLEIK
# Assays:
# [1] = target: T1, reduced, denatured HER-3-His tagged purified ECD protein (Homo sapiens, UniProt P21860); assay: Dot blot analysis of reduced, denatured HER-3 ECD; format: binding
# T1 construct: The extracellular domain of HER-3 (ECD) cDNA was cloned by polymerase chain reaction (PCR); His (C); made in house; host or cells: HEK293
# rat HER-3 = target: T2, rat HER-3 (Rattus norvegicus, UniProt Q62799); assay: ELISA cross-reactivity with rat HER-3; format: binding
# T2 construct: The cDNAs expressing the ECD of human and rat HER-3 were cloned into mammalian expression vectors as V5-His fusion proteins; V5-His; made in house; host or cells: mammalian expression vector; HEK 293T is named only for the chimeras
# Source text: The extra-cellular domain (ECD) of Human HER-3 cDNA was amplified from RAT1-HER-3 cells. The rat HER-3 cDNAs was amplified by RT-PCR from rat liver RNA and confirmed by sequencing. The cDNAs expressing the ECD of human and rat HER-3 were cloned into mammalian expression vectors as V5-His fusion proteins. Domains from the human HER-3 ECD were swapped into the scaffold provided by the rat HER-3 ECD by using the Mfe1, BstX1 and DraIII internal restriction sites. By this means, various chimeric rat/human HER-3 ECD HIS fusion proteins (amino acids 1-160, 161-358, 359-575, 1-358, 359-604) were constructed and expressed via transient transfection of HEK 293T cells. Expression of the constructs was confirmed using a rat polyclonal antibody against human HER-3. The human monoclonal antibodies were tested in ELISA for binding to the secreted chimeric ECDs.
# T2 sequence (Q62799 20-643 limits assumed): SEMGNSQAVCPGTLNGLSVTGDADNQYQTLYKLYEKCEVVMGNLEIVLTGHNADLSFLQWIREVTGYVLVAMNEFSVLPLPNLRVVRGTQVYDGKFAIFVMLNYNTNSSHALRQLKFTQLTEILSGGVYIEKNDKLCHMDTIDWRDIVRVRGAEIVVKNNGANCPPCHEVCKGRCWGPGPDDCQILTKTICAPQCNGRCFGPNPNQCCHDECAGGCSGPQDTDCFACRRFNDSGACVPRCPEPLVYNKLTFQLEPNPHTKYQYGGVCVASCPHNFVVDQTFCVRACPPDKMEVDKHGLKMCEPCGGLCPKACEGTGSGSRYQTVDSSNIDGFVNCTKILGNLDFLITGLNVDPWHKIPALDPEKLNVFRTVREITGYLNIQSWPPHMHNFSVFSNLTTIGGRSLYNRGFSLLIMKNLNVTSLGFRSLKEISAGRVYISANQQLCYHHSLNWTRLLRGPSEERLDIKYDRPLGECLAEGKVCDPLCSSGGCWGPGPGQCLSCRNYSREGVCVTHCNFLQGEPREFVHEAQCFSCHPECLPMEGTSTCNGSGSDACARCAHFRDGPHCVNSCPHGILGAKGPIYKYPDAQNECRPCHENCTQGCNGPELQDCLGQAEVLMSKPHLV
molecule,measurement,setting,value
B1,binding in dot blot analysis,[1],absence of binding
same,Rat XR (cross-reactive),rat HER-3,No

# Reference: patent US9988462B2, “Material and methods for treating or preventing HER-3 associated diseases” (Daiichi Sankyo Europe GmbH, priority 2005, dated 2018)
